# Experimental data taken from PubChem BioAssay AID995 (National Center for Advancing Translational Sciences (NCATS), 2007).
# Hit rate of the full screen: of about 72,000 compounds, about 710 (0.99%) were called active. The inconclusive results got no clear call from the source; some entries with a clear call stand among them for comparison. Calls follow the shape of the dose curve; as a rule, active = well fitted inhibition curve with a large enough effect; inconclusive = small, poorly fitted or top-dose-only effect; inactive = no such curve, though single readings can be large or run the other way. Potencies of inconclusive entries are left out as doubtful fits.
# Assay: qHTS Assay for Inhibitors of the ERK Signaling Pathway using a Homogeneous Screening Assay; also: nearly all actives have a fitted effect of over 55% in size
# Conditions: HEK293-V1b, vasopressin-stimulated pERK AlphaScreen; activity, negative = inhibition: at 57.5 µM (top of the series) unless noted
# Excerpt: qHTS Assay for Inhibitors of the ERK Signaling Pathway using a Homogeneous Screening Assay; also: nearly all actives have a fitted effect of over 55% in size
# NIH Chemical Genomics Center [NCGC]
# NIH Molecular Libraries Screening Centers Network [MLSCN]
# Assay Submitter (PI): Dr. Wei Zheng, NCGC/NIH
# The Ras/extracellular-signal-regulated kinase (ERK) mitogen activated protein (MAP) kinase signaling pathway (ERK1/2 cascade) plays is a key role in transmitting signals from the cell surface to the nucleus (Nishida and Gotoh 1993; Chang and Karin, 2001). The cascade is initiated by the small G-protein Ras, which recruits Raf […], where activation occurs. Alternatively, this pathway can be activated by elevating intracellular cAMP.
# Activation of the ERK pathway is essential in increased cell division and cell survival. Sustained and constitutive activation of the ERK pathway, however, has been linked to uncontrolled cell proliferation, increased cell survival, and tumor progression. Thus, the ERK has been as an attractive target for cancer chemotherapy in the past few years (Sebolt-Leopold and Herrera, 2004). Given its physiological and pathological importance, assessment of ERK phosphorylation has been broadly performed in both basic research and drug discovery. Most assays for the measurement of ERK phosphorylation use the antibody-based detection methods, such as western blot and ELISA. These assays require multiple reagent additions with cell wash steps and are not suitable for high throughout screening.
# The current cell-based ERK phosphorylation assay was performed using AlphaScreen platform. AlphaScreen is a two bead-based proximity-dependent chemical energy transfer luminescent assay platform. The assay reagents (ERK SureFire(TM) kit) were supplied from TGR BioSciences (Australia). In the presence of specific antibodies, phosphorylated ERK will bring "donor" and "acceptor" beads to a proximity range (<200 nm), and subsequently lead a chemical luminescent reaction upon exciting donor beads with 680 nm laser. To exclude the assay-related false positives, we used a biotinylated rabbit IgG to perform counter-screen. The biotinylated antibody mimics the phosphorylated ERK1/2 for bringing streptavidin coated beads and protein-A coated beads to a proximity range for the AlphaScreen detection.
# NCGC Assay Protocol Summary:
# HEK293 cells stably expressing type-1 vasopressin receptor (V1b) were maintained in DMEM medium (Invitrogen, Carlsbad, CA) at 37C under a humidified atmosphere containing 5% CO2 and 95% air. The medium contained 10% FBS, 2 mM L-glutamine, non-essential amino acid, pyruvate and 50 U/ml penicillin and 50 ug/ml streptomycin (Invitrogen). The aliquots of frozen cells were stored at -135C and used for the compound screening. All compounds were screened as titrations from 0.6 nM to 46 uM final concentration. Vasopressin was used to stimulate the ERK phosphorylation pathway. The ERK phosphorylation in cells was determined using an AlphaScreen assay kit provided by PerkinElmer. Data were normalized to the controls for basal activity (DMSO only) and 100% activation (25 nM vasopressin). AC50 values were determined from concentration-response data modeled with the standard Hill equation.
# (1) Seed 4 ul/well of resuspended frozen HEK293 cells containing 2000 cells in white 1536-well plates for overnight with 1% FBS at 37C under a humidified atmosphere containing 5% CO2 and 95% air.
# (2) Add 23 nL compounds in DMSO solution. The final titration was 0.6 nM to 46 uM.
# (3) Incubate at 37C for 30 min.
# (4) Dispense 0.5uL vasopressin (25 nM in final)
# (5) Incubate at 37C for 5 min.
# (6) Dispense 0.5uL of 1:2 diluted 5x lysis buffer.
# (7) Incubate at 37C for 10 min.
# (8) Dispense 1.5uL of mixture of activation buffer and reaction buffer with AlphaScreen beads (streptavidin donor beads and protein-A acceptor beads, 10 ng/well for each).
# (9) Incubate at room temperature for 5 hr.
# (10) Detect the assay plate in an EnVision plate reader (PerkinElmer) using the AlphaScreen detection mode.
# […]
# % is scaled to controls: 0 for no effect and ±100 for the full control effect; potency is read from the fitted curve at half-maximal effect; tags tell the direction and shape of the fitted curve.
Structure (SMILES),Potency,"activity, negative = inhibition"
O=C(O)CCc1ccc(-c2ccccc2)n1-c1cccc(O)c1,"inconclusive [inhibitor, single point]",
C=CCc1ccccc1OCC(O)CN1CCN(c2ccc(C)cc2)CC1 (stereo unspecified),"inconclusive [inhibitor, single point]",
c1cncc(CNc2ncncc2-c2ccc3c(c2)OCO3)c1,,inactive: -22.6%
CC1(C)CC(=O)C(C2(O)C(=O)N(Cc3ccccc3)c3ccccc32)CO1 (stereo unspecified),,inactive: 22.4%
O=C(Nc1ccc(Cl)cc1)N(Cc1cccnc1)Cc1ccco1,"inconclusive [inhibitor, single point]",
COc1cc2c(C=O)c3c4c(cc(OC)c(OC)c4c2cc1OC)CCN3C,"inconclusive [inhibitor, full curve]",
Cc1ccc(S(=O)(=O)CCC(=O)c2ccc(O)cc2O)cc1,"inconclusive [inhibitor, partial curve]",
O=C(Nc1sc2c(c1C(=O)NC1CCCCC1)CCC2)c1ccco1,,inactive: -18.1%
CC1=CC(C#N)(C#N)C(C#N)(C#N)C(c2ccccc2)N1 (stereo unspecified),,inactive: -9.52%
CC(C)(C)C1CCC2(CC1)C(C#N)=C(SCC(=O)NC1CCCCC1)NC(=O)C2C#N (stereo unspecified),,inactive: 14.8%
O=c1cc(-c2c(F)c(F)c(F)c(F)c2F)oc2c(F)c(F)c(F)c(F)c12,"inconclusive [inhibitor, single point]",
N=c1c(C(=O)NCc2ccc3c(c2)OCO3)cc2c(=O)n3ccccc3nc2n1Cc1cccnc1,"inconclusive [inhibitor, partial curve]",
O=c1[nH]c2cc3c(cc2cc1CN(CC1CCCO1)S(=O)(=O)c1ccccc1)OCCO3 (stereo unspecified),"inconclusive [inhibitor, partial curve]",
CCC(C)(C)NC(=O)C(c1ccco1)N(C(=O)c1csnn1)c1cccc(F)c1 (stereo unspecified),,inactive: -6.99%
CCCn1c(=O)c2ccccc2n2c(SCCOc3ccccc3)nnc12,,inactive: 28%
Cc1cccc(NC(=O)C2c3ccccc3C(=O)N3CCc4ccccc4C23)n1 (stereo unspecified),"inconclusive [inhibitor, partial curve]",
C=CCn1c(NCc2ccc(N(C)C)cc2)nc2ccccc21,"inconclusive [inhibitor, partial curve]",
Cc1cc(C)nc(-n2nc(C)cc2NC(=O)c2ccc(Br)o2)n1,"inconclusive [inhibitor, full curve]",
CCCCCn1c(Sc2ncccn2)nc2c1c(=O)[nH]c(=O)n2C,"inconclusive [inhibitor, partial curve]",
CC1CC(C)CN(c2oc(-c3ccco3)nc2C#N)C1 (stereo unspecified),"inconclusive [inhibitor, single point]",
COC(=O)c1ccccc1NC(=O)C1CCN(S(=O)(=O)c2cc(C)ccc2OC)CC1,"inconclusive [inhibitor, partial curve]",
COC(=O)c1ccc(Nc2nc(C)cc(=O)[nH]2)cc1,"inconclusive [inhibitor, partial curve]",
COc1cccc(Cn2c(=O)c(-c3ccc(Cl)cc3)nc3cncnc32)c1,"inconclusive [inhibitor, partial curve, poor fit]",
Cc1ccc(C2CC(=O)Nc3cc4c(cc32)OCCO4)s1 (stereo unspecified),"inconclusive [inhibitor, partial curve]",

Structure (SMILES),Potency,"activity, negative = inhibition"
O=C(O)CCCc1ccc2ccc3ccccc3c2c1,,inactive: -2.35% [at 11.5 µM]
CN(C)c1ccc(-c2nccc(NCc3cccs3)n2)cc1,,inactive: 23.1%
CC(=O)c1sc(Nc2nc3ccc(F)cc3s2)nc1C,,inactive: 8.64%
Oc1c(Cl)cc(Cl)c2cccnc12,,inactive: -7.46%
CCOc1ccc(C2SCC(=O)N2c2c(C)n(C)n(-c3ccccc3)c2=O)cc1 (stereo unspecified),"inconclusive [inhibitor, full curve, poor fit]",
CN(C(=O)c1ccccc1)c1nc2ccccc2s1,,inactive: -1.65%
O=C(C1CC1)N1CCc2cc(S(=O)(=O)N(CCO)Cc3ccccc3)ccc21,"inconclusive [inhibitor, single point]",
N#Cc1nc(-c2ccc(OCc3ccccc3Cl)cc2)oc1NCCCn1ccnc1,,inactive: -2.68%
CCCCN1CN(S(=O)(=O)c2cccs2)c2nc3ccccc3nc21,"inconclusive [inhibitor, partial curve]",
CCOC(=O)c1nn(-c2ccccc2)c(C#N)c1NC(=O)c1nn(CC)cc1Br,,inactive: -10.9%
Cc1cc(C)nc(N(C#N)CC(=O)N2CCC(C(N)=O)CC2)n1,,inactive: -6.97%
COC(=O)c1c(C)n(-c2ccc(OC)cc2)c2ccc(O)cc12,active: 25.1 µM,
N[C@H](C(=O)O)[C@@H](O)c1cnc[nH]1,,inactive: -1.65% [at 11.5 µM]
CCOC(=O)C1CCCN(C(=O)c2cn(CC)c(=O)c3cc(OC)c(OC)cc23)C1 (stereo unspecified),"inconclusive [inhibitor, single point]",
COC(=O)c1cccc(OCC(O)Cn2cnc3cc(C)c(C)cc32)c1 (stereo unspecified),"inconclusive [inhibitor, partial curve]",
COc1cc(/C=C/C(=O)/C=C(O)/C=C/c2ccc(O)c(OC)c2)ccc1O,"inconclusive [inhibitor, partial curve]",
COc1ccc(-n2c(=O)c(-c3ccccc3)nc3cncnc32)cc1,"inconclusive [inhibitor, full curve]",
COc1ccc(N2CCN(C(=O)CCNS(=O)(=O)c3ccc4c(c3)CCC(=O)N4)CC2)cc1,"inconclusive [inhibitor, partial curve]",
COc1ccc(OC)c(NC(=O)C2COc3ccccc3O2)c1 (stereo unspecified),,inactive: -8.59%
CC(=O)c1c(C(C)=O)c(C)n(NC(=O)c2cccnc2)c1C,"inconclusive [inhibitor, single point]",
Cc1c(CN(C)C)c2c(n1C)C(=O)c1ccc(Br)cc1-2,"inconclusive [inhibitor, partial curve]",
C[C@H]1C2=C3C(CC[C@H]4C(OCc5ccc(F)cc5C(F)(F)F)OC[C@](C)([C@@H]34)N(C(=O)OC(C)(C)C)C2)C(CO)C1CO (stereo partly specified),,inactive: 2.34%
CC1CCc2c(sc3nc(SCC(=O)NCc4ccco4)nc(N)c23)C1 (stereo unspecified),,inactive: -7.2%
Cc1cc(SCC#N)n2nc(C)c(-c3ccccc3)c2n1,"inconclusive [inhibitor, partial curve]",

Structure (SMILES),Potency,"activity, negative = inhibition"
CC1N(C)c2cc(NC(=O)c3ccco3)ccc2C1(C)C (stereo unspecified),,inactive: -20.7%
CCn1c2ccccc2c2nnc(SCC(=O)N3CC(C)OC(C)C3)nc21 (stereo unspecified),"inconclusive [inhibitor, partial curve]",
COc1ccc(C2CC(=O)C3=C(C2)Nc2ncnn2C3c2ccccc2C)c(OC)c1 (stereo unspecified),"inconclusive [inhibitor, partial curve]",
O=C(C1CCCN(c2nnc(-n3cccc3)s2)C1)N1CCN(c2ccccc2)CC1 (stereo unspecified),"inconclusive [inhibitor, partial curve]",
Cn1nnnc1SCC(=O)N1CCN(C(c2ccccc2)c2ccccc2)CC1,,inactive: 2.32%
Oc1cc2c(cc1O)C1c3ccc(O)c(O)c3OCC1(O)C2 (stereo unspecified),"inconclusive [inhibitor, single point]",
Fc1ccc(Nc2ccnc(-c3ccc4c(c3)OCO4)n2)cc1,"inconclusive [inhibitor, single point]",
COc1ccc(-c2cc(=O)c3c(O)c(OC)c(OC)c(OC)c3o2)cc1,"inconclusive [inhibitor, partial curve, poor fit]",
COc1cccc(Nc2ncc3ncc(=O)n(CCC#N)c3n2)c1,"inconclusive [inhibitor, partial curve]",
Cc1cc(O)c(C(C)C)cc1CN1CCCCC1,"inconclusive [inhibitor, single point]",
CCCCC[C@H](O)c1cccc(OCc2ccc3ccccc3n2)c1,"inconclusive [inhibitor, partial curve]",
Cc1ccccc1-c1ccc2ncnc(N(C)C)c2c1,"inconclusive [inhibitor, full curve, poor fit]",
CC1=CC(C)(C)N2C(=O)C3(C(C#N)=C(N)Oc4cc(O)ccc43)c3cccc1c32 (stereo unspecified),,inactive: -24.2%
Cc1cc(C(=O)OCC(=O)c2c(N)n(C)c(=O)n(C)c2=O)c(C)n1-c1ccccc1,"inconclusive [inhibitor, full curve]",
Cc1nc(NC(=O)c2cc3c(s2)CCCCC3)sc1C(=O)N(C)C,"inconclusive [inhibitor, partial curve]",
COc1ccc(CCNc2oc(Cc3cccc4ccccc34)nc2C#N)cc1OC,"inconclusive [inhibitor, full curve]",
Cc1cc(C)n(-c2nc(NCC3CCCO3)c3c4c(sc3n2)COC(C)(C)C4)n1 (stereo unspecified),"inconclusive [inhibitor, partial curve]",
Cc1ccsc1C(=O)N1CC(=O)Nc2ccccc21,,inconclusive: -34.5% [inhibitor]
Cc1cc(C(=O)CSc2nc3ccccc3c(=O)n2C)c(C)n1Cc1ccc2c(c1)OCO2,"inconclusive [inhibitor, partial curve]",
Cc1ccc2c(c1)nnn2C1CCN(CC(=O)NCCc2ccccc2)CC1,"inconclusive [inhibitor, single point]",
CCNc1ncc2nc(-c3ccc(F)cc3)c(=O)n(-c3ccccc3)c2n1,"inconclusive [inhibitor, full curve]",
COc1ccccc1NC(=O)CSc1nnc(-c2ccc(C)cc2)o1,,inactive: 6.58%
COc1ccc(C(=O)COC(=O)CSCc2c(C)noc2C)cc1OC,"inconclusive [inhibitor, partial curve]",
